Some of the results follow. Antibody binding of pooled human sera (four to six donors per pool; dilution not stated) to peptides of the Trypanosoma cruzi antigen TSSA on microarrays. Quantile-normalised fluorescence in arbitrary units, mean of duplicate arrays; higher = more binding. No active / inactive call. The uninfected pools are read here as the healthy donors of the same country. The strongest signals lie near the top of the scale (about 60,000).

The test system of this experiment is pooled sera of chronic Chagas disease patients, Argentina. As to the kind of experiment: antibody binding signal (normalised fluorescence) (arbitrary fluorescence units); higher = stronger serum antibody binding to peptide. How it is done:
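Microarray of 15-residue peptides over residues 30-55 of Trypanosoma cruzi TSSAII, each with 1 to 10 substitutions at naturally variable positions, probed with one serum pool per country.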
SGKENKTATGETPSQ gave an antibody binding signal of 2220.
The value for EKKPAAGGAPSQPGA was 925; that for PSGTENKTAAGEAPS was 48000.
As to GTDKKAAAGEAPSQP, the antibody binding signal was found to be 5450.
The value for GKEKKTAAGGAPSQS was 3330; that for SGKDNKTATGEAPSP was 13500.
The value for GTEKKAATGGAPSQP was 1330; that for SSTPPSGTDKKAAAG was 31300.
GTDNKAATGEAPSPS registered an antibody binding signal of 26200.
In turn, TPPSGTENKAAAGGT returned an antibody binding signal of 53600.
Sequence PSGKDKKAAAGGTPS gave an antibody binding signal of 3290.
For KDKKAATGETPSPSG, the antibody binding signal came to 390.
Sequence NKTAAGETPSQSGAS gave an antibody binding signal of 242.
The value for GKDKKTAAGGAPSQP was 285; that for KKTAAGGAPSPSGAS was 209; that for STPPSGKEKKAAAGE was 16000.
The value for TDNKAATGETPSQSG was 3190; that for SSTPPSGTENKPAAG was 53800.
For GTDNKAATGGAPSPP the value was 603.
The sequence TEKKAAAGEAPSQSG gave an antibody binding signal of 1230.
For PPSGKDNKPATGGTP, the antibody binding signal came out at 772.
For GTEKKAATGGTPSPS the value was 981.
For KKAATGETPSQSGAS the value was 932; for PSGKENKAATGEAPS, 31100.
In turn, GTDNKPATGEAPSQP registered an antibody binding signal of 45800.
In turn, TPPSGTEKKAAAGGT displayed an antibody binding signal of 33400.
The sequence DKKPATGEAPSPPGA displayed an antibody binding signal of 44600.
The value for GKDNKTAAGGAPSPS was 441; that for GKENKPAAGEAPSPP was 4390; that for GTEKKAATGEAPSQS was 22900.
The value for SGKDKKAATGETPSP was 1270.
For the sequence KEKKTATGEAPSPSG, the antibody binding signal was found to be 5620.
For GKEKKAAAGETPSQP the value was 4510; for GKDNKPATGGTPSPS, 1340; for GTDNKPAAGGAPSPS, 2070.
Sequence SGKDNKPAAGGTPSQ had an antibody binding signal of 704.
Take KDNKTATGGAPSPSG: the antibody binding signal is 490.
For NKAATGGTPSPPGAS the value was 401; for EKKPAAGGAPSQSGA, 304.
Consider PSGKDKKAAAGETPS, for which the antibody binding signal came to 2400.

These data come from the supplement of paper PMC10441789.
